Measurements taken from PubChem BioAssay AID2147 (National Center for Advancing Translational Sciences (NCATS), 2009).
In all, about 230,000 compounds went through this assay and about 3,600 (1.6%) were called active. Inconclusive means that the source gave no clear call. Such entries were picked first, then a sample of the others. The call rests on the fitted dose curve; in most records, active means well fitted inhibition curve with a large enough effect (not every such curve was filed as active); inconclusive means small, poorly fitted or top-dose-only effect, or another doubt; inactive means no such curve, though single readings can be large or run the other way. Potencies of inconclusive entries are doubtful fits and often do not repeat.

Biological target: Lysine-specific demethylase 4E (Homo sapiens) (UniProt B2RXH2)
Test: qHTS Assay for Inhibitors of Human Jumonji Domain Containing 2E (JMJD2E)
Settings: JMJD2E catalytic domain, FDH-coupled NADH fluorescence (FDH is formaldehyde dehydrogenase); series mostly up to 57.1 µM
Further: nearly all actives have a fitted effect of over 50% in size.
Potency means the concentration at half of the fitted maximal effect; tags describe the fitted curve by direction and shape.

Chain of UniProt B2RXH2 (B2RXH2 whole entry, looked up, the tested form may be a part): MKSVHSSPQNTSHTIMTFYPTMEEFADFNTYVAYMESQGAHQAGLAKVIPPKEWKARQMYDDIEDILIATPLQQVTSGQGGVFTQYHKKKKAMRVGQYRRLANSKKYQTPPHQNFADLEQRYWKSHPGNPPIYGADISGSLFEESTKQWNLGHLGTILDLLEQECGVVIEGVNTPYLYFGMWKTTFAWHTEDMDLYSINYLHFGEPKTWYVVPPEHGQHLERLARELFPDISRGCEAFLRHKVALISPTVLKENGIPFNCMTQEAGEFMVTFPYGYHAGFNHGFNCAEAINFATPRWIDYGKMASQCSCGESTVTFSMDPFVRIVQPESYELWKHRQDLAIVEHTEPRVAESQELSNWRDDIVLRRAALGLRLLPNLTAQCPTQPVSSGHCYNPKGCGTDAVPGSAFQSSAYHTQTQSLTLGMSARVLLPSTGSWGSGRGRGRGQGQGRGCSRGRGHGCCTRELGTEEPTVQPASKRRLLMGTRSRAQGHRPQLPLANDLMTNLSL

Compound	Potency
O=C(/C=C/c1ccc(Cl)cc1)N(Cc1cccs1)C1CCS(=O)(=O)C1 (centres undefined)	inactive
COc1cc2cc(C(c3nnnn3C(C)(C)C)N3CCc4ccccc43)c(=O)[nH]c2cc1OC (centres undefined)	inconclusive: 25.1 µM [inhibitor, single point]
CCn1c(O)c(C=NC2CCCC2)sc1=S	inactive
CCOc1ccc(-c2nnc(N)s2)cc1	inconclusive: 39.8 µM [inhibitor, single point]
Cc1nnn(-c2nonc2N)c1C(=O)N/N=C/c1cccc2ccccc12	inconclusive: 11.2 µM [inhibitor, partial curve]
N#Cc1c(/N=C/c2ccccc2)oc(-c2ccccc2)c1-c1ccccc1	inconclusive: 2.51 µM [inhibitor, full curve, poor fit]
Cc1cc(F)ccc1S(=O)(=O)Nc1ccccc1C(=O)NCc1cccnc1	inconclusive: 28.2 µM [inhibitor, partial curve]
N[C@@H](CCC(=O)N[C@H](CSN=O)C(=O)NCC(=O)O)C(=O)O	inconclusive: 35.5 µM [inhibitor, single point]
COCCCNC(=O)CSC1=Nc2ccccc2C2=NC(c3ccccc3)C(=O)N12 (centres undefined)	inconclusive: 35.5 µM [inhibitor, partial curve]
CCS(=O)(=O)Nc1ccc(C2=NN(C(=O)c3ccco3)C(c3ccc(C)cc3)C2)cc1 (centres undefined)	inconclusive: 28.2 µM [inhibitor, partial curve]
Clc1ccc2[nH]c3c(c2c1)CCc1cn[nH]c1-3	inconclusive: 35.5 µM [inhibitor, single point]
N#C/C(=C\c1ccncc1)C(N)=O	inconclusive: 39.8 µM [inhibitor, single point]
O=C1c2ccccc2C(=O)N1/N=C/c1ccc(O)c(O)c1	active: 15.8 µM
CSc1nc(-c2ccco2)nn1S(=O)(=O)c1ccc(C)cc1	inconclusive: 39.8 µM [inhibitor, single point]
CC1(C)Cc2c(C#N)c(NCCO)nc(-c3ccco3)c2CO1	inconclusive: 31.6 µM [inhibitor, partial curve]
O=c1[nH]c(=O)n(C2CC(O)C(CO)O2)cc1C(F)(F)F (centres undefined)	inactive
Cc1ccc2nc(-c3ccc(NC(=O)COC(=O)c4cncc(Br)c4)cc3)sc2c1	inconclusive: 35.5 µM [inhibitor, partial curve]
Cc1cc(=O)oc2cc(OCC(=O)N3CCN(C(=O)c4ccco4)CC3)ccc12	inconclusive: 22.4 µM [inhibitor, partial curve]
O=C(Nc1cc(Cl)ccc1N1CCCCC1)c1cccs1	inconclusive: 39.8 µM [inhibitor, single point]
COc1ccc(-c2cn3cccnc3n2)cc1Br	inconclusive: 28.2 µM [inhibitor, partial curve]
CCOCCCNC(=O)C(NC(=O)c1ccccc1O)c1ccc(Cl)cc1 (centres undefined)	inconclusive: 31.6 µM [inhibitor, partial curve]
O=C(O)c1ccc(N/N=C/C2=C(N3CCOCC3)C(=C\c3ccccc3)/CC2)cc1	inconclusive: 25.1 µM [inhibitor, single point]
N#CCc1nn(-c2ccccc2)c2ncnc(N)c12	inconclusive: 31.6 µM [inhibitor, single point]

Compound	Potency
CN1c2ccccc2C(O)=C(C(=S)Nc2ccccc2)S1(=O)=O	inactive
COc1cc(OC)c(N2CC34C=CC(O3)C(C(=O)O)C4C2=O)cc1Cl (centres undefined)	inactive
Cc1ccnc2ccc(-c3nc4ccccc4o3)cc12	inconclusive: 31.6 µM [inhibitor, partial curve]
Cc1cc(O)c(C=O)c2c1C(=O)Oc1c(C)c(O)c3c(c1O2)C(O)OC3=O (centres undefined)	inconclusive: 39.8 µM [inhibitor, single point]
CC(=O)N1CCN(c2ccc(NC(=O)C(C)Oc3ccc(Cl)cc3Cl)cc2)CC1 (centres undefined)	inactive
NC(=O)c1cc([N+](=O)[O-])ccc1NCc1cccnc1	inconclusive: 39.8 µM [inhibitor, single point]
O=C(Nc1cc(Cl)ccc1Oc1ccccc1)c1cnccn1	inactive
CCNc1nc(CC)nc2c1oc1ccccc12	inconclusive: 28.2 µM [inhibitor, single point]
C/C(=N\O)c1cc(Cl)ccc1O	inactive
Cc1cc(C(=O)COC(=O)C2=NNC(=O)CC2)c(C)n1-c1ccccc1	inactive
Cc1ccc(C(=O)Nc2nc(-c3ccccc3)c(-c3ccccc3)o2)cc1	inconclusive: 39.8 µM [inhibitor, single point]
COc1ccc2nc(COC(=O)c3cccs3)c(C(C)=O)[n+]([O-])c2c1	inconclusive: 39.8 µM [inhibitor, single point]
CCO/C=C1\C(=O)N(c2ccc(OCC)cc2)C(=O)c2ccccc21	inconclusive: 25.1 µM [inhibitor, partial curve]
CCCc1cc(=O)n2[nH]c(-c3cc(OC)c(OC)c(OC)c3)nc2n1	inconclusive: 31.6 µM [inhibitor, partial curve]
O=C(NCc1ccc2c(c1)OCO2)c1nn(-c2ccccc2)c(=O)c2ccccc12	inconclusive: 39.8 µM [inhibitor, single point]
CSc1ncc2ncn(C3OC(CO)C(O)C3O)c2n1 (centres undefined)	inconclusive: 35.5 µM [inhibitor, single point]
CCCn1nc(NC(=O)C2CCCO2)c2cc3ccc(C)cc3nc21 (centres undefined)	inconclusive: 31.6 µM [inhibitor, partial curve]
O=C(NCCc1ccccc1)c1ccccc1NC(=O)C1CCCO1 (centres undefined)	inconclusive: 25.1 µM [inhibitor, single point]
CCN1CC(CN(C)Cc2nc(-c3ccc(OC)c4ccccc34)oc2C)CC1=O (centres undefined)	inconclusive: 22.4 µM [inhibitor, partial curve]
N#C/C(=N\Nc1cccc([N+](=O)[O-])c1)C(=O)c1ccc(Br)cc1	inactive
S=c1nc(-c2sccc2OCc2ccc(Cl)cc2Cl)[nH][nH]1	inconclusive: 35.5 µM [inhibitor, single point]
Cc1nn(C)c(Nc2ccc(Br)cc2)c1Br	inconclusive: 22.4 µM [inhibitor, single point]
COc1ccc(CN2C(=O)c3ccccc3C(/C=N\OCc3ccc(C)cc3)C2=O)cc1 (centres undefined)	inconclusive: 35.5 µM [inhibitor, single point]

Compound	Potency
CC(=O)C(Sc1ncnc2c1nnn2-c1ccc(F)cc1)C(=O)N(C)C (centres undefined)	inactive
Cc1cc(NC(=O)CSc2nnnn2-c2ccc(C)c(C)c2)no1	inactive
NC(=O)NCCCC(=O)OCC(=O)c1ccc2ccccc2c1	inconclusive: 28.2 µM [inhibitor, partial curve]
Cc1ccccc1-n1c(=O)cc(N2CCC3(CC2)OCCO3)[nH]c1=O	inactive
COC(=O)c1cc2sccc2n1CC(=O)N1CCCc2ccccc21	inactive
CC1CCCC2(C1)NC(=S)N(c1ccccc1)N2 (centres undefined)	inconclusive: 35.5 µM [inhibitor, single point]
COc1ccc(N2CCN(C(=O)CCCN3C(=O)c4cccc5cccc(c45)C3=O)CC2)cc1	inconclusive: 31.6 µM [inhibitor, single point]
Nc1cc(S(=O)(=O)N2CCCCC2)ccc1N1CCOCC1	inconclusive: 31.6 µM [inhibitor, single point]
FC(F)(F)c1cc(-c2ccccc2)nc(NCc2cccs2)n1	inconclusive: 35.5 µM [inhibitor, single point]
CCCn1c(-c2ccc(F)cc2)nc2c(N3CCCN(Cc4ccccc4)CC3)nc(C)nc21	inconclusive: 12.6 µM [inhibitor, partial curve]
COc1ccc(-c2cc3ccccc3n2CC(O)CN2CCOCC2)cc1 (centres undefined)	inconclusive: 35.5 µM [inhibitor, partial curve]
COC(=O)c1sc(-c2cccs2)cc1NC(=O)/C=C/C(=O)O	inconclusive: 39.8 µM [inhibitor, single point]
CC(=O)c1noc(C)c1C(=O)Nc1nccs1	inactive
O=C(NCC1CCCO1)c1cc(-c2ccco2)nc2ccccc12 (centres undefined)	inconclusive: 31.6 µM [inhibitor, partial curve]
O=C(COC(=O)CCCN1C(=O)c2cccc3cccc(c23)C1=O)Nc1cccc(Br)c1	inconclusive: 28.2 µM [inhibitor, partial curve]
Cc1ccc(C(=O)NNC(=O)CSc2nc(N)cc(N)n2)cc1	inactive
Cc1cc(O)c(-c2cc(O)c(C)cc2O)cc1O	inconclusive: 7.08 µM [inhibitor, partial curve]
c1ccc(-c2c3ccccc3nc3[nH]c4ccccc4c23)cc1	inconclusive: 31.6 µM [inhibitor, partial curve]
CN(c1ccccc1)c1ccc(/C=N/N2CCOCC2)cc1	inconclusive: 39.8 µM [inhibitor, single point]
CCN(CCn1cccn1)C(=O)c1cc(COc2cccc3cccnc23)on1	inconclusive: 25.1 µM [inhibitor, single point]
COc1ccc(-c2c(C)oc3c(CN4CCN(C)CC4)c(O)ccc3c2=O)cc1	inconclusive: 31.6 µM [inhibitor, partial curve]
CC(C)CN(C(=O)COC(=O)c1cc2ccccc2oc1=O)C1CCS(=O)(=O)C1 (centres undefined)	inconclusive: 28.2 µM [inhibitor, partial curve]
O=c1ccc2ccc(O)cc2o1	inconclusive: 14.1 µM [inhibitor, partial curve]
